# Test results: ChEMBL document CHEMBL4888484, “Replenishing the malaria drug discovery pipeline: Screening and hit evaluation of the MMV Hit Generation Library 1 (HGL1) against asexual blood stage Plasmodium falciparum ,using a nano luciferase reporter read-out” (2022)
# Hit rate of the full screen: of about 150,000 compounds, about 540 (0.36%) showed an effect of 50% or more. The list shows a part of the results.
# Test system: Plasmodium falciparum
# Assay: Primary screen in NF54 nanoGlo assay, in single point, at 2uM, 72h; a lower Z score goes with more inhibition
# Assay type: functional, Erythrocyte
# Details: timepoint 72 hour
SMILES,% Inhibition,Z score
Cc1nnc(CN(C)[C@@H](C)C(=O)Nc2ccccn2)o1,-6%,0.81
CS(=O)(=O)n1nc(-c2cccs2)nc1NCc1ccc(Cl)cc1,-48%,5.62
O=C(Cc1n[nH]c(=O)[nH]1)N1CCO[C@@H](CC(c2ccccc2)c2ccccc2)C1,1%,-0.13
O=S(=O)(NC1CCCC1)[C@H]1CCCN(S(=O)(=O)c2cccnc2)C1,-20%,2.01
C[C@@H](C(=O)NCCc1cnccn1)n1cc(Cl)cn1,4%,-0.57
CCn1cc(CNC(=O)NC2CCCCC2)c(C)n1,-5%,0.97
O=C(NC1CCN(C(=O)N2CCCCC2)CC1)c1ccnnc1,-6%,0.77
CCCC1CC(C)(c2csc(NCCNc3nc(C4(C)CC(CCC)C(=O)O4)cs3)n2)OC1=O (configuration not stated),4%,-0.58
Cn1nc(C(=O)Nc2nc(-c3c(F)cccc3F)n[nH]2)ccc1=O,1%,-0.17
Cc1cc(C(=O)N(C)c2ccnn2C)c(F)cc1F,16%,-1.88
CC1=C[C@@H](CNC(=O)CC2(CC(=O)O)CCCC2)[C@H](C(C)C)C[C@H]1Cc1nc2ccc(F)cc2[nH]1,0%,0.02
COc1ncc(CN(CCc2ccc(Cl)cc2)Cc2cccnc2)cn1,6%,-1.14
O=C(C1C2C(=O)N(CCc3ccncc3)C[C@@]23C=C[C@@H]1O3)N1CCC1 (some centres not stated),0%,-0.02
C[C@@H](CCC1CC1)Nc1ncnc2ccccc12,6%,-1.21
CC(C)NC(=O)COC(=O)c1cccc(F)c1,-3%,0.39
Cc1nc(CC(=O)N2CCN(S(C)(=O)=O)CC2)c(C)s1,-11%,2
Cc1nc(CC[C@H]2CCN(C(=O)c3ccncn3)C2)no1,2%,-0.37
CC(C)CN1CCN(C(=O)c2cnc(-c3ccc4c(c3)CCO4)s2)CC1=O,-19%,3.65
CN(Cc1ccccc1)Cc1cccc(C(=O)N[C@H]2CCc3ncnn3C2)c1,-11%,1.09
Cc1cccc(Cl)c1NC(=O)N1CCC2(C1)OCCO2,-8%,0.94
CN(CCn1ccnc1)C(=O)[C@@H]1CCc2ccccc21,1%,-0.17
CN1CCN(Cc2cnc(-c3cccc4ccccc34)nc2)C[C@@H]1CCO,-9%,1.11

SMILES,% Inhibition,Z score
Cc1ccc(Cl)cc1NC(=O)CN1C(=O)CCn2nc(-c3cn(C)c4ccccc34)cc21,-2%,0.36
CC(NC(=O)N1CC(C)C1c1ccccc1)c1nncn1C (configuration not stated),29%,-3.23
COc1ccnc(C(=O)N2CC3CCC2C3)c1 (configuration not stated),-9%,1.11
Cc1nc(-c2cccc(F)c2)nc(N2CCN(C(=O)Nc3cccc4ccccc34)CC2)c1Cc1ccccc1,2%,-0.24
O=C(Cn1c2c(c3ccccc31)CCC2)NC[C@H]1CCS(=O)(=O)C1,5%,-0.6
Nc1c(S(=O)(=O)c2ccccc2)c2nc3ccccc3nc2n1Cc1ccc2c(c1)OCO2,-12%,1.04
O=S1(=O)NC[C@H](O)CN(Cc2ccccc2)C[C@@]2(COc3ccccc31)C[C@@H](O)[C@@H](O)C2,27%,-3
Cc1nnc2c(N(C)CCOc3cccc(F)c3)nccn12,9%,-1.17
Cc1noc(N)c1C(=O)O[C@@H](C)C(=O)N1CCOCC1,1%,-0.07
Cc1noc(C)c1-n1c(CCn2cccn2)n[nH]c1=O,6%,-1.12
O=c1c2cc(Cl)ccc2ncn1Cc1csc(Cc2ccc(Cl)cc2)n1,6%,-0.9
Cn1cc(C(NC(=O)C2Cc3ccccc3C(=O)O2)C(C)(C)C)cn1 (configuration not stated),-4%,0.58
O=C(CNc1ncc(Br)cn1)N1CCOCC1,-2%,0.19
COc1cn(CC(=O)NCc2cccnc2)c(CO)cc1=O,4%,-0.71
CCOc1nc(N[C@@H](CO)c2ccco2)ncc1Br,-11%,1.27
COc1ccc(Cl)cc1C(=O)N1Cc2cccnc2C1,6%,-0.74
O=C(C1CCOCC1)N1CCN(CCF)CC1,-18%,2.25
COc1ccc(Cc2nc(-c3cccs3)no2)cc1,-5%,0.7
COCCOCC(=O)Nc1cc(F)cc(F)c1,0%,0.01
CC1CCN(Cc2cccc(CNC(=O)c3ccoc3)c2)CC1,11%,-1.58
O[C@H]1C[C@H](C(Nc2ncccc2C(F)(F)F)c2ccccn2)C1 (some centres not stated),-10%,1.12
Cc1onc(N)c1S(=O)(=O)NCCn1ccnc1C(C)C,-6%,0.83

SMILES,% Inhibition,Z score
C[C@H]1CN(S(=O)(=O)CC(F)(F)F)CCN1S(=O)(=O)CC(F)(F)F,-10%,1.23
Cc1oc2c(c1C(=O)NC[C@H]1CN(S(C)(=O)=O)CCO1)C(=O)CCC2,-7%,0.73
CC(C)(C)c1ccc(S(=O)(=O)Nc2ccc3c(c2)COC3)s1,-12%,2.34
CC1(O)CCN(C(=O)C2COCCN2CC(F)(F)F)C1 (configuration not stated),7%,-0.97
Cc1cccc(S(=O)(=O)Nc2ccc(N3CCC(N4CCCCC4)CC3)c(C(=O)O)c2)c1,0%,-0.04
NC(=O)NC(=O)CN(Cc1cccnc1)Cc1ccco1,32%,-3.61
COCCCN(Cc1nc2ccccc2n1C)C1CCN(C)CC1,-6%,1.22
Cc1nnsc1C(=O)N(Cc1cc(C2CC2)n(C)n1)C1CCCC1,-5%,0.89
CC1CCCCC1NC(=O)COC(=O)c1cc(Cl)cn1C (configuration not stated),8%,-0.88
O=C(Nc1nc2ccccc2[nH]1)C1CCN(c2cc3c(nn2)CCC3)CC1,31%,-0.83
CN(C)S(=O)(=O)CCNC(=O)Nc1ccnn1C1CCCCC1,-13%,1.71
NC(=O)c1cc[nH]c1[C@H]1CCCN(C(=O)c2cscn2)C1,11%,-1.26
c1ccc(-c2cn(-c3ccccc3)c3ncnc(N4CCCC4)c23)cc1,35%,-0.93
CN(C)c1ncccc1CNc1cnn(CC(=O)N2CCOC(C)(C)C2)c1,-4%,0.69
N#Cc1ccnc(Oc2ccc3ccccc3c2)c1,-5%,0.94
CCCC[C@H](C)C(=O)NCCc1ccc(C)nc1,-5%,0.86
C[C@H]1CC(=O)Nc2ccccc2N1C(=O)Cc1ccc(Cl)cc1,4%,-0.45
COCCN1C[C@@H](NC(=O)c2ccc3c(c2)CCCC3)CC1=O,-14%,1.9
Cc1cc(C(F)(F)F)nn1CC(=O)NCC(=O)N1CCCCCNC(=O)C[C@H]1c1ccccc1,-13%,2.03
Cc1cccc(-c2noc(-c3ccoc3C)n2)c1,-7%,1.04
C[C@H]1CCN(c2cc(C(=O)NC3(CC(N)=O)CCCCC3)ccn2)C1,0%,0.06
CCN(Cc1noc(C2CCC2)n1)Cc1nnc(C)s1,9%,-1.85

SMILES,% Inhibition,Z score
Cc1ccsc1C(=O)Nc1ccc(N(C)C(=O)c2sccc2C)c(F)c1,-18%,1.85
CCC(NCc1ccncc1OCC1CCOC1)C1CC1C (configuration not stated),-1%,0.13
Cc1cccc(-c2noc([C@@H]3CCCCN3)n2)c1,34%,-3.89
Cc1ncsc1COC(=O)c1c(C(C)C)nn(C)c1Cl,0%,-0.05
COCc1nc(CN2C[C@H]3CC[C@@H](C2)N(Cc2c(C)noc2C)C3=O)no1,-13%,2.52
COCCN1C[C@]2(CCCN(C(=O)COc3ccc(F)cc3)C2)CCC1=O,-5%,0.9
Fc1ccc(CN2CCc3[nH]nc(C4CC4)c3C2)c(F)c1F,8%,-1.27
O=C(NCc1cccnc1-n1cnc2ccccc21)c1cc(Cl)c[nH]c1=O,6%,-0.74
C[C@H](NC(=O)N1CCCC(c2cncn2C(C)(C)C)C1)C(=O)N(C)C (some centres not stated),-13%,1.51
COCCN1C[C@@H](Cc2ccccc2-c2nnc(C)s2)CC1=O,-16%,2.69
COc1ccc(C(=O)CCC(=O)N2CC[C@](C)(O)[C@H](O)C2)cc1,-4%,0.5
O=C1CCN(C(=O)c2cc3ccccc3[nH]2)CCOCCN1,1%,-0.2
CCN1CCCc2cc(CN(CCN3CCOCC3)C(=O)Nc3ccc(C)c(C)c3)ccc21,-9%,1.43
Cc1cccc(C)c1NC(=O)Cn1c(=O)cnc2cc(C(=O)NC3CCCC3)ccc21,-9%,0.99
Cc1nn(C)cc1Cn1ncc2ccccc2c1=O,-21%,2.41
CCS(=O)(=O)N1CCc2nn(Cc3ccccc3)c(=O)n2CC1,-18%,2.32
c1cn(-c2ccc3c(c2)OCO3)c(-c2cnc(N3CCOCC3)nc2)n1,-12%,1.09
Cc1cc(S(=O)(=O)NCc2cccc(N)c2)c(C)o1,-10%,1.43
COC[C@H](C)Nc1nc(-c2ccc(S(=O)(=O)N3CCCCCC3)cc2)cs1,-38%,4.48
Cc1cnc(C[C@H]2CCN(S(=O)(=O)c3ccc4c(c3)OCCO4)C2)n1C1CC1,-11%,1.33
